In the supplement of paper PMC11417369:
± gives the standard deviation of the averaged measurements. The list shows a part of the results.

system: PfAP2-LT AP2 domain (GST-tagged); experiment: gcPBM binding intensity (ln(normalized median fluorescence intensity)); higher = stronger DNA binding
Summary of the method: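 Each value is the highest Masliner-normalised natural-log median intensity across replicate spots of either orientation of a probe. The probes were primer-extended double-stranded 36-bp intergenic genomic sequences on an Agilent 4 × 180k array, alongside negative controls, exposed for 1 h to GST-tagged P. falciparum DNA-binding domains expressed in E. coli. Bound protein was picked up with Alexa488 anti-GST antibody and scanned at 488 nm.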

Sequence | gcPBM binding intensity (ln)
AATATATATATTTAAGTGCATAATATTGTAATATTA | 8.72 ± 0.44
TTACCAAAAAAATGTAGTACAATATAATATTATTTA [XGTACX_site5750] | 8.52 ± 0.38
ATATATTATGAAGACTGTACATTTACATGAAAAAAA [XGTACX_site7203] | 8.68 ± 0.52
CACCCCCACAGACACACACACACACCCATATATATA [CACACA_site364] | 10.45 ± 0.042
AAGATTCATTGGTTCTGTACAAAATAAACACTATAA [XGTACX_site834] | 8.69 ± 0.49
ATATATAATTAATTTTGTACACATAAAAAAAAAAAT [XGTACX_site6647] | 8.69 ± 0.43
AGAGAGAAAGCTATAACATGCAACAATTTTTTGAAA [TGCATGCA_site514] | 8.79 ± 0.5
ATATCTTATAATACGGTGCACTTGACATGAACAACT [GTGCAC_site9987] | 8.95 ± 0.33
ATATTTGCATGTGGTAGTACATAACATTCTTTTACA [XGTACX_site8194] | 8.85 ± 0.32
ACATATTATATATGTGTGCACATATATATATATTTA [GTGCAC_site9591] | 9.7 ± 0.33
CTTCAATTAAAATTCACACATATAAATTAAAATATT [CACACA_site6129] | 8.46 ± 0.45
TTTATTTAAAAAGTTTGTACATATATATTATTTTGA [XGTACX_site6040] | 8.54 ± 0.41
AAAAAATATTAGACTTATAAAGCATAAAGGATATTA [GTGCAC_negctrl_site588] | 8.52 ± 0.52
AATTTATTATTTTATTGTACGTATTTTTTTTTTTAT [XGTACX_site2298] | 8.89 ± 0.49
ATATTATAGTTATGAACATGCAAACATTACGAAATA [TGCATGCA_site54] | 8.76 ± 0.5
CATATATAAATATATACACACATACATACATACATA [CACACA_site5988] | 9.36 ± 0.4
TTTATATATATAATATGTACACATAATAATAATACA [XGTACX_site4862] | 8.61 ± 0.4
AAATGACATTTCAAAAGTACATATTTAATTAATTAA [XGTACX_site2919] | 8.51 ± 0.56
TCATATATTTTAATATGTACACATTTTTTTGGTATA [XGTACX_site8695] | 8.7 ± 0.5
TTTTTCTTTATTAGCACACATAATATTATATATGTG [CACACA_site2629] | 8.89 ± 0.42
TACAGACTAAAATACACACACACACGCACATATATA [CACACA_site7875] | 10.2 ± 0.18
TACATTTATATATATACACACACACTAATAAAAAAA [CACACA_site8845] | 9.54 ± 0.28
ATATGTATATATAAGGTGCAGAAAGGTGGGCAAAAG | 9.21 ± 0.5

Sequence | gcPBM binding intensity (ln)
TAAATACAGATATATACACACATATATATATTTTAT [CACACA_site5970] | 9.12 ± 0.35
ATAAAAAAGAAACAAACACACATACATACAAACAAA [CACACA_site4256] | 9.47 ± 0.33
CTTTTGTCATTCTTTTGTACACAGTTTGAAATATGT [XGTACX_site1457] | 9.09 ± 0.54
AAATAGAGAAATACAAGTACATATCAAACCAATATA [XGTACX_site1192] | 9.04 ± 0.47
ATAATAAATAAATAATGTACATATGAAAGAATAAAT [XGTACX_site8355] | 9.11 ± 0.53
ATTCTTTTAAAATAGGTGCTAAAAATAATATGTTAC | 8.54 ± 0.49
TTCACCAGTTGGTAAACATGCAATTTTCCATACAAG [TGCATGCA_site267] | 8.48 ± 0.39
AAAAAAAACGGACACACACACATACCCATACATACA [CACACA_site5574] | 10.1 ± 0.41
ATATAAATACATAAATGTACTTACCATTTAAATATG [XGTACX_site5254] | 8.79 ± 0.38
ATTATTTGTTTAATGAGTACGAAGACAAATTTTACC [XGTACX_site5223] | 8.63 ± 0.28
AAAGGAAAAAAAAGCACACACAATATTACTTGAAAT [CACACA_site2588] | 9.43 ± 0.38
GTACTATACAAAGATGATAATCAATATATATATATA [XGTACX_negctrl_site264] | 9.17 ± 0.45
TATATACACAGACACACACACACATACACGCACATA [CACACA_site6909] | 10.1 ± 0.22
AAAGAAAGAAGAAATTGTACATAATAAATAAGTAAA [XGTACX_site3311] | 8.79 ± 0.52
ATATAAACAATATTTTGTACATAATTTTATGAGCAT [XGTACX_site6933] | 8.62 ± 0.43
GCATATGTTTATTGCACACACCAAAAAGAAAACATA [CACACA_site4384] | 9.32 ± 0.36
AATATATTTTTTGGTTGTACAGAGATCTTTGTAGAA [XGTACX_site1707] | 8.44 ± 0.43
TTTTTATATTTAATGTGTCCTCACTTAAAAGGATGA [XGTACX_site2744] | 8.36 ± 0.47
TATAATAATTATACATGTACACATTATTTGGATAAA [XGTACX_site5552] | 8.65 ± 0.42
ATTCTCCAAGTTTGATGTACACATATGACGACGGCG [XGTACX_site4912] | 8.74 ± 0.45
AAAAATTATAGAAAAGTGCAATACATGTTACACCAT | 8.67 ± 0.51
TACAATAAGGATAAGTGTACATATGTGCATACATAT [XGTACX_site7188] | 8.96 ± 0.35
CATATAGCATAATCATGTACACATACAACAAATAGG [XGTACX_site1589] | 9.05 ± 0.44

Sequence | gcPBM binding intensity (ln)
AAACTTGTAAGAAACACACACACACCCATATATATA [CACACA_site797] | 9.96 ± 0.15
AAATTGGGGCTTGTTACACACTTAGTGGGAGTTCTA [CACACA_site4485] | 9.01 ± 0.16
TATACCAGTTTTAAAAGTACTTGTGCATAAAAAATA [XGTACX_site4794] | 8.7 ± 0.38
TTACGATTATACAAAAGTACATGTATTACACAATAT [XGTACX_site5138] | 8.85 ± 0.35
TATATATATATATATACACACTATATAATTCAAACA [CACACA_site4712] | 9.47 ± 0.17
ATGAATAAATTAAAAATGCACACTTTGATGGGTACA [CACACA_site2157] | 8.88 ± 0.47
CTTTTTTGTTAAAGTGTGCGCAATAGTTATAGACTT [GTGCAC_site9670] | 8.87 ± 0.38
GTAAAAATAAAAACTGGTACACAAGTTGTTATAAAA [XGTACX_site502] | 8.77 ± 0.46
AACATGCTCAACTTTTTTTTTTTTTTTTTTTTTTTT [CACACA_negctrl_site1617] | 8.9 ± 0.24
AAAATAAAATAAAAGTGTACGTTTTAAGAACATTGA [XGTACX_site2382] | 8.68 ± 0.52
TATAATCAATATGTAACACACAAAAGTTATATACTT [CACACA_site7368] | 8.91 ± 0.34
AATCTTAAAAATATATGTACTAAAAAAAAAAAAAAT [XGTACX_site6195] | 8.53 ± 0.45
TAATAATAAAAATAAACACACATATATATGTATATA [CACACA_site2853] | 8.93 ± 0.34
AAATTATATTCAAGTGCATGTAACTTATTATTATAT [TGCATGCA_site526] | 8.71 ± 0.39
ATATTTATTTATTTATGTACGCACACAGTTGATATT [XGTACX_site5808] | 9.37 ± 0.4
CACTATATAAGAACCTGTACTCAATTTTGCAATATA [XGTACX_site7238] | 8.68 ± 0.49
TATATTTTCCTGCAAACACACATATAAATGTGTAGA [CACACA_site533] | 8.78 ± 0.3
ATAAAAAGGAGACACACACACACACGCATATTTATA [CACACA_site6551] | 10.3 ± 0.26
TATATTAAACCATGTAGTACCTTGAATAAATATTAT [XGTACX_site8254] | 8.63 ± 0.54
AAAAAAAAATACATATGTACTTATGTATAATGTTGT [XGTACX_site8104] | 8.84 ± 0.47
ATTATACCACCCGATATACACACTTGTAGACATCTT [CACACA_site7944] | 9.04 ± 0.41
CATGTTATGATTCCATGTACTTATAGCATTAAAAAA [XGTACX_site8939] | 8.39 ± 0.4
TTTTTTTAATTAGTTTGTACATATTGTTATAATATA [XGTACX_site6294] | 8.7 ± 0.52

Sequence | gcPBM binding intensity (ln)
AAGTTACAAAATCAAAAGGAAAAAATATAAAATAAT [CACACA_negctrl_site561] | 8.67 ± 0.55
CAAGAAAATTGACACACACACATATTTATATTTATA [CACACA_site7766] | 9.68 ± 0.39
AACATATATATATATACATGCATATGAACAACGAAT [TGCATGCA_site93] | 9.25 ± 0.38
TATAAAAATGTTTACACACACACATAAATATATTTT [CACACA_site2512] | 9.39 ± 0.43
TTTTTTTTTTTTCTGAGTACGAAAAATAGAGATAGA [XGTACX_site3825] | 8 ± 0.35
TGTATAAATATAATCACACATATATATATATATATA [CACACA_site4365] | 9.79 ± 0.27
ATCACATATATATATAATATATATATGTATATATTT [GTGCAC_negctrl_site249] | 8.65 ± 0.37
ATATATATATATATATGTACATATATTTTTATTTAT [XGTACX_site3508] | 9.435 ± 0.0071
AAAAAAAATATATATGCACACACAAAAAAACAAATT [CACACA_site8349] | 9.48 ± 0.37
CAACTAATATTAAAACGTACATAAATATTTAACAGA [XGTACX_site625] | 8.74 ± 0.5
TATACCTTTTTATTCACACATATATGTCATATGTCA [CACACA_site5423] | 9.28 ± 0.5
TATTACTTATAAATTACACACAAATGATTGAACATT [CACACA_site2259] | 8.86 ± 0.33
TTAATTACATGTAATTGTACTTAATTATAAGACATT [XGTACX_site464] | 8.54 ± 0.37
TTTTACCTAAATATCACACATATTTAAATATATATA [CACACA_site5597] | 8.56 ± 0.47
TTAAAATAAAGAAAATGTACATAAATAAAAATAAAG [XGTACX_site2280] | 8.85 ± 0.5
TTGTAATAAAGAATTAAAAAAAAATATATACAGGTA [GTGCAC_negctrl_site150] | 8.56 ± 0.54
CATATATATATATATTGTACACATTTTTTATAAAAA [XGTACX_site2526] | 8.61 ± 0.37
TATTTGCAATATAACACACACAAAAAAAGACTCGGA [CACACA_site6891] | 9.31 ± 0.32
TATATGTAATATATATGTACGTATAATATAATATTG [XGTACX_site8620] | 8.71 ± 0.32
AATTATACATTATATTGTACATATGAATAATTAAAA [XGTACX_site6829] | 8.58 ± 0.44
ATACAAATAAAAAAAAAAATTATAAAATTATAAAAT [CACACA_negctrl_site914] | 8.51 ± 0.54
